Here are results for 160 sequences from paper PMC4242493.

Some of the results follow. The list includes weakly bound sequences.

For this test, the target named is MaxL homodimer (UniProt P61244). The experiment in a line: universal protein-binding microarray (PBM). The note with it: PBS-based mixture, 10 nM His-tagged protein dimer, 2% milk, 200 ng/uL BSA, 50 ng/uL salmon testes DNA, 0.02% TX-100; detection with Alexa 488 anti-His …; high values mean tight binding; most listed sequences are background and not binding sites; double strand, one strand shown.
Chain of UniProt P61244 (P61244 whole entry): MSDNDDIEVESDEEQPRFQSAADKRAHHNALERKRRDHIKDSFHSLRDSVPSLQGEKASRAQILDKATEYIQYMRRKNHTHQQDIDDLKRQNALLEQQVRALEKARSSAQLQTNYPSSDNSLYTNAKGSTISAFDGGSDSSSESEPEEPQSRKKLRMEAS
Take CAAAATTC: the binding signal (normalized occupancy) came to 0.0707. For the sequence CTAAAGAA, the binding signal (normalized occupancy) was determined as 0.0673. In the case of CGAGCACA, the binding signal (normalized occupancy) came to 0.0845. For ACATTGTA, the binding signal (normalized occupancy) was 0.085. Consider ATGCCCGC, for which the binding signal (normalized occupancy) was found to be 0.0791. Consider CAACTCAC, for which the binding signal (normalized occupancy) is 0.0757. The figure for CTTGGGCC is 0.0661. The figure for AGCAGCCT is 0.0719; for ATAGCAGA it is 0.0831; for AGATTAAG it is 0.0762. Turning to ACCCATTC, the binding signal (normalized occupancy) came out at 0.0754. For the sequence GTAAAAAA, the binding signal (normalized occupancy) was found to be 0.0769. Regarding CCTCCAAG, the binding signal (normalized occupancy) turned out to be 0.071.

In the case of GCGCAGAA, the binding signal (normalized occupancy) was 0.0697. The figure for CCACCCTA is 0.0825. Take ACCAGGAG: the binding signal (normalized occupancy) turned out to be 0.0724. Take AGCCGGGC: the binding signal (normalized occupancy) was found to be 0.0651.

Regarding AAGATGGT, the binding signal (normalized occupancy) was 0.0763.

As to ATTAGTGG, the binding signal (normalized occupancy) worked out at 0.0793. Consider CTGACTCA, for which the binding signal (normalized occupancy) is 0.0764.

As to AAGACTGA, the binding signal (normalized occupancy) amounted to 0.0739. The figure for TCAGATGA is 0.0795. With AGGCCCCG the figure was 0.0733. The figure for TGAGCCAA is 0.0783; for CTGGCTTA it is 0.0662.

For AGTGCCCC, the binding signal (normalized occupancy) came to 0.0768. Regarding AAAGGTTA, the binding signal (normalized occupancy) was 0.0754. Regarding AAGCGCAA, the binding signal (normalized occupancy) is 0.0657. For the sequence AGACTTAC, the binding signal (normalized occupancy) is 0.0779. Turning to AGAGGTGC, the binding signal (normalized occupancy) was determined as 0.0762. The figure for CGGAATTC is 0.0726; for ACCGTTAT it is 0.0775; for GGTCGTGA it is 0.0739. The figure for CCTGCGCG is 0.069; for ACTCGGAC it is 0.0727; for CAACGGTG it is 0.0765. As for AACATGAG, the binding signal (normalized occupancy) amounted to 0.0999.

Consider AGATCGAG, for which the binding signal (normalized occupancy) worked out at 0.0716. GAGGAAAC: the binding signal (normalized occupancy) was found to be 0.0723. The figure for ATGGTACG is 0.08; for ACGGTATC it is 0.0721; for ATGACACC it is 0.0826.

As to AGGCTACC, the binding signal (normalized occupancy) turned out to be 0.0747. Regarding ACAGTAAA, the binding signal (normalized occupancy) was 0.0733.

On to ACTAGTAA, for which the binding signal (normalized occupancy) amounted to 0.0744. For the sequence AGCAGCAG, the binding signal (normalized occupancy) is 0.0718.

For the sequence ATCTTCAC, the binding signal (normalized occupancy) came out at 0.0759.

ATGCTTCG: the binding signal (normalized occupancy) turned out to be 0.0788.

Regarding ATGACTAC, the binding signal (normalized occupancy) stood at 0.0811.

CCAGCCGC: the binding signal (normalized occupancy) was 0.0711.

In the case of GCCGTAAC, the binding signal (normalized occupancy) was 0.0713. Regarding AACAGTTA, the binding signal (normalized occupancy) is 0.07. As to TGCACCAA, the binding signal (normalized occupancy) amounted to 0.077.

With CCATGCAC, the binding signal (normalized occupancy) was determined as 0.0969. With CTGTGTAC, the binding signal (normalized occupancy) is 0.0761.

Regarding CAAGTATA, the binding signal (normalized occupancy) was 0.086. CGAAACTA: the binding signal (normalized occupancy) was determined as 0.0701.

With GAACACGA, the binding signal (normalized occupancy) stood at 0.0948. As for CAATTCCC, the binding signal (normalized occupancy) stood at 0.0808. With GGAGGCAC, the binding signal (normalized occupancy) stood at 0.0743.

Take AGATTTTA: the binding signal (normalized occupancy) was 0.0758. On to ATCATCCG, for which the binding signal (normalized occupancy) came out at 0.0779. The figure for CGCCGAAC is 0.0739; for CGCGCGCG it is 0.0873. With AGCACCCT the figure was 0.0789; with AACGAGGT, 0.084.

For TAAAGAAA, the binding signal (normalized occupancy) is 0.0705. The figure for CTCATGTA is 0.0936. Regarding GCGTGAGC, the binding signal (normalized occupancy) is 0.091. With CACTTTCA, the binding signal (normalized occupancy) came out at 0.0735. Consider ACTTCAAA, for which the binding signal (normalized occupancy) turned out to be 0.0727. Take CGTCTAAA: the binding signal (normalized occupancy) came to 0.072. Consider GGAAATGA, for which the binding signal (normalized occupancy) came out at 0.0761. Consider AACTTAAG, for which the binding signal (normalized occupancy) turned out to be 0.0741. For the sequence AAGCGGCA, the binding signal (normalized occupancy) turned out to be 0.0743. On to CGCATAAC, for which the binding signal (normalized occupancy) is 0.0798. With TAGTAATA the figure was 0.0773; with ATATTACC, 0.077. The figure for AGTCTTAT is 0.0802; for CTTTCGTC it is 0.0737. In the case of GGTGGGGA, the binding signal (normalized occupancy) was found to be 0.0816. For ACCTTTCG, the binding signal (normalized occupancy) was 0.0715. Consider CGGTCACA, for which the binding signal (normalized occupancy) amounted to 0.0791. Turning to CTCTCGTC, the binding signal (normalized occupancy) was 0.0699. The figure for ATCACCAC is 0.0852; for CGACAGTA it is 0.0748; for CGTAGGGA it is 0.073. The figure for CGGCGGTC is 0.0675; for CGGAAAGC it is 0.0696; for GTGTGTAA it is 0.0776. As to AGGCGGCC, the binding signal (normalized occupancy) came out at 0.0747. AGCGCGTC: the binding signal (normalized occupancy) was determined as 0.0772. In the case of CCTAGATA, the binding signal (normalized occupancy) came out at 0.0756. As to ATTACAGC, the binding signal (normalized occupancy) was 0.0764. For the sequence GCGAGCCA, the binding signal (normalized occupancy) stood at 0.0666. As to AGACCACA, the binding signal (normalized occupancy) was 0.082. Turning to CTATAGGA, the binding signal (normalized occupancy) amounted to 0.0753. Consider AATTAATT, for which the binding signal (normalized occupancy) was found to be 0.0782. Take ACCTACGG: the binding signal (normalized occupancy) amounted to 0.0677.

On to CCGGTAAG, for which the binding signal (normalized occupancy) was 0.0644. On to GCTAACCC, for which the binding signal (normalized occupancy) is 0.0788. On to CCGTCCGC, for which the binding signal (normalized occupancy) is 0.0764. ACGACACG: the binding signal (normalized occupancy) was 0.0876. With ATTTTTAC the figure was 0.0773; with CCTTCCGA, 0.0695; with AACCTAGT, 0.0704. ACTTACCC: the binding signal (normalized occupancy) came out at 0.0824. With AGACCGCG, the binding signal (normalized occupancy) was 0.0698. For GTCCAGAA, the binding signal (normalized occupancy) was 0.0736. The figure for AACGCCAT is 0.0796; for GTACCCAC it is 0.0809.

With TAATTAGA, the binding signal (normalized occupancy) came to 0.0731. For CCAGCCAA, the binding signal (normalized occupancy) stood at 0.0689. For TAAGAGAA, the binding signal (normalized occupancy) stood at 0.0732.

As for CGTTAGAG, the binding signal (normalized occupancy) was 0.0749.

In the case of AATGCGTG, the binding signal (normalized occupancy) turned out to be 0.0941. For the sequence CCATGCAG, the binding signal (normalized occupancy) came out at 0.0965. For the sequence CAATAGGA, the binding signal (normalized occupancy) is 0.0779. As to CACCCCTA, the binding signal (normalized occupancy) was determined as 0.0846. With CGGAAGGC the figure was 0.0657; with CAGGTTGC, 0.0791; with AAGTGGCC, 0.0705. CAATACTA: the binding signal (normalized occupancy) was found to be 0.0735. Turning to GTAGTACA, the binding signal (normalized occupancy) came out at 0.0841. For TAGCAGCA, the binding signal (normalized occupancy) worked out at 0.0781. In the case of ATCCCGGA, the binding signal (normalized occupancy) amounted to 0.0731. With TCTCGACA the figure was 0.075.

For the sequence AAGAACCA, the binding signal (normalized occupancy) was 0.0782.

ATCGTTGG: the binding signal (normalized occupancy) was found to be 0.077.

With CAGAGTTA, the binding signal (normalized occupancy) was determined as 0.0755. The figure for AGGGACCT is 0.0673; for CCTGCACG it is 0.0845; for AGGTGGAG it is 0.0827. With CTTTGTTA the figure was 0.0748; with GACTCAGA, 0.072. GATAATGC: the binding signal (normalized occupancy) turned out to be 0.0859.

For the sequence AGTCCCTG, the binding signal (normalized occupancy) stood at 0.0718. With AGCTAGAA the figure was 0.0701; with ACAACATA, 0.0833; with ATCCGGGG, 0.0744.

For GCCCTCTA, the binding signal (normalized occupancy) worked out at 0.0736. Take CCATTGGA: the binding signal (normalized occupancy) stood at 0.0702. With CCCACTCC, the binding signal (normalized occupancy) turned out to be 0.0787. Turning to AAGTGAAT, the binding signal (normalized occupancy) came out at 0.0756.

Take GCTGAGAA: the binding signal (normalized occupancy) came to 0.0743. AATACTCA: the binding signal (normalized occupancy) amounted to 0.0802. ATTGGGGG: the binding signal (normalized occupancy) came to 0.0854. With TGCCAACA, the binding signal (normalized occupancy) amounted to 0.0786. In the case of CAAGGCCA, the binding signal (normalized occupancy) was found to be 0.0771. Turning to CCAATATA, the binding signal (normalized occupancy) was determined as 0.0811. For AGACACGG, the binding signal (normalized occupancy) was 0.0756. With ATAAGCGG the figure was 0.0717. Turning to CGATCGAC, the binding signal (normalized occupancy) turned out to be 0.0717.

With ATGCATCG, the binding signal (normalized occupancy) is 0.0835. Consider CCACTAAG, for which the binding signal (normalized occupancy) is 0.0706.

Take GCCAGGCC: the binding signal (normalized occupancy) came out at 0.0665. With CTGACGGA the figure was 0.0692.

For the sequence CAGCAGTA, the binding signal (normalized occupancy) amounted to 0.0727. As for GGAGCTCC, the binding signal (normalized occupancy) was determined as 0.066. For the sequence ATTGTGGG, the binding signal (normalized occupancy) worked out at 0.0776.
